# Measured values from paper PMC4336329 (PLoS ONE, 2015).
# Out of some 310,000 compounds screened, about 14,000 (4.5%) showed an effect of 50% or more. The effect is printed as a negative number. The list shows a part of the results.
# Molecular target: human ether-à-go-go-related gene (hERG) potassium channel (human, UniProt Q12809)
# Experiment: primary screen, population patch clamp on CHO cells stably expressing hERG
# 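Also: peak tail current of the secondary pulse compared with the same well before compound.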
# Sequence of human ether-à-go-go-related gene (hERG) potassium channel (Q12809 whole entry, looked up): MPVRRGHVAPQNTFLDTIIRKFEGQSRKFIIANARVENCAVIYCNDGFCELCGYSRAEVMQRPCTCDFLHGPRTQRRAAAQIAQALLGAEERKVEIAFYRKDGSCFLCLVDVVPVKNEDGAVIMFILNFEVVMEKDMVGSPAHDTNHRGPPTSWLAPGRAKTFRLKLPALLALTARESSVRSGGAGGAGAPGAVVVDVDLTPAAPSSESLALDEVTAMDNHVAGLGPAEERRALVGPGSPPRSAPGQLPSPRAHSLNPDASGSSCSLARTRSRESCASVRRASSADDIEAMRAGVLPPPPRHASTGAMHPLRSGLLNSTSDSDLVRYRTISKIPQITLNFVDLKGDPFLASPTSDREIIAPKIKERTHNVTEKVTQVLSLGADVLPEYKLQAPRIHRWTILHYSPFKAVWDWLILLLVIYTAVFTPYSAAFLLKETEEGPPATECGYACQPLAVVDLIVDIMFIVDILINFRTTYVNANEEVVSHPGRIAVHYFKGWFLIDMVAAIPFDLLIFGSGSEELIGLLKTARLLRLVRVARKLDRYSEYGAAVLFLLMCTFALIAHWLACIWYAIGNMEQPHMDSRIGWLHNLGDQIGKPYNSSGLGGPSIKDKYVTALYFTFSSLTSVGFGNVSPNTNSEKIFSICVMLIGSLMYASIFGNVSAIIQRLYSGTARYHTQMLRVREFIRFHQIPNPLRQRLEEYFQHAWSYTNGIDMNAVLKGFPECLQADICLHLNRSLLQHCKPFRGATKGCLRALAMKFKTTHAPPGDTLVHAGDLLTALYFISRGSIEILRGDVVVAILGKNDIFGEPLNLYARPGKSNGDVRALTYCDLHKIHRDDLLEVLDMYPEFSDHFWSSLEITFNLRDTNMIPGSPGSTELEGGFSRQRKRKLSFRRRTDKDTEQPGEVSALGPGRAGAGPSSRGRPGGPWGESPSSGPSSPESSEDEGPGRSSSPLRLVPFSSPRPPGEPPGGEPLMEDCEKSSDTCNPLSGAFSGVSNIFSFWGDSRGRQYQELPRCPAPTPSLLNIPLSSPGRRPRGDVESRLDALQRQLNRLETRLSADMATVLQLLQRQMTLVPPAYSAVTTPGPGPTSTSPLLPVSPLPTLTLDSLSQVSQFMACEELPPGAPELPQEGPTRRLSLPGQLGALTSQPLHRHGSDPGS
row,Compound,"hERG current change (%, negative = inhibition) at 10uM [%]"
1,Cc1nn(C)c2ncc(C(=O)c3ccccc3O)cc12,13.7
2,CCOc1ccc(S(=O)(=O)NCCC(=O)N2CC(C)OC(C)C2)cc1 (stereo not shown),8.02
3,Cc1cccc(-n2c(-c3ccco3)nc3nc4ccccc4nc32)c1,-8.72
4,Cc1ccnc(SCC(=O)c2ccc([N+](=O)[O-])cc2)n1,-22.7
5,CCc1nc(N2CCN(S(=O)(=O)c3ccc(Br)cc3)CC2)c2c(C)c(C)sc2n1,-32
6,O=C(c1cc2ccccc2oc1=O)N(c1ccccc1)C1C=CS(=O)(=O)C1 (stereo not shown),2.29
7,CCc1nnc(NS(=O)(=O)c2ccc(NC(=O)c3ccco3)cc2)s1,1.04
8,CC12CCC(C(=O)O)(c3nc4cc([N+](=O)[O-])ccc4nc31)C2(C)C (stereo not shown),-1.75
9,O=C(Nc1ccccc1F)c1ccc([N+](=O)[O-])s1,0.218
10,Cc1cc(C)n2nc(SCc3cc(=O)oc4cc(C)c(C)cc34)nc2n1,5.02
11,CCOC(=O)C1CCN(c2c(NCc3ccc(C(=O)NC(C)CC)cc3)c(=O)c2=O)CC1 (stereo not shown),-17.1
12,O=C(O)CCC(=O)NCCn1c(-c2ccccc2)csc1=Nc1ccccc1,7.98
13,CCN(C(=O)c1cccc(F)c1)c1ccccc1C,-3.53
14,C#CCN1c2ccccc2Sc2cccnc21,16.2
15,O=C(O)CCNS(=O)(=O)c1ccc(Oc2ccccc2Cl)cc1,-5.18
16,COC(=O)C1SCC2C(=O)N(Cc3ccc(F)cc3)CC(=O)N21 (stereo not shown),14.3
17,CC(=O)Nc1cccn(Cc2c(Cl)cccc2Cl)c1=O,9.71
18,Cc1ccc(S(=O)(=O)NCCC(=O)NNC(=O)C2COc3ccccc3O2)cc1 (stereo not shown),-4.79
19,CC(C)OP(=O)(O)NC(=O)c1ccccc1,23.8
20,Cc1ccc(NC(=O)CCCCCNS(=O)(=O)c2ccc(C)cc2)cc1,3.11
21,CCOC(=O)CN(C(=O)c1ccccc1[N+](=O)[O-])C(C)(C)C,9.73
22,CCOc1ccc(C(=O)Nc2ccc(C(F)(F)F)n(C)c2=O)cc1,14.5

row,Compound,"hERG current change (%, negative = inhibition) at 10uM [%]"
1,CCOc1ccc(C(=O)N2CCCC2)cc1OC,-14.7
2,Cc1ccc(S(=O)(=O)Nc2cccnc2)cc1,26.8
3,Cc1cc(C)n(-c2ccc(C(=O)N3CCc4ccccc43)cc2)n1,-3.89
4,O=C(COC(=O)Cc1ccc(F)cc1)Nc1cc(S(=O)(=O)N2CCOCC2)ccc1N1CCCC1,-17.5
5,CCN(CC)S(=O)(=O)c1ccc(O)c(NS(=O)(=O)c2ccccc2F)c1,5.58
6,COc1ccc2nc(-c3ccccc3)nc(SCC(=O)NCC3CCCO3)c2c1 (stereo not shown),7.99
7,CCCC(=O)Nc1nc2nc(-c3ccccc3)cc(=O)n2[nH]1,7.12
8,COc1ccc(C2C(C(=O)NCCN(C)C)c3ccccc3C(=O)N2C)cc1OC (stereo not shown),18.9
9,CNC(=O)c1ccc(NC(=O)C2CCN(S(=O)(=O)c3cccc(C(F)(F)F)c3)CC2)cc1,13.9
10,Nc1cc(C(=O)OCC(=O)NNC(=O)c2ccccc2)ccc1Cl,11.1
11,COc1ccc(/C=C/C(=O)NC(=S)Nc2cc3oc4ccccc4c3cc2OC)cc1,6.42
12,Cc1ccc(C)c(-c2nnc(NC(=O)C3=COCCO3)o2)c1,-6.03
13,CC1CCCCC1NS(=O)(=O)c1ccc2c(c1)CCC(=O)N2 (stereo not shown),-19.3
14,Cc1ccc2nc(Cl)c3cc(C(=O)N(CCN(C)C)Cc4ccco4)sc3c2c1,-39.8
15,Cc1ccc(OCC(=O)NNC(=O)CSc2ncnc3sc(C)c(C)c23)cc1,39.6
16,COc1cccc(NC(=O)N2CCC(N3CCCCC3)CC2)c1,-7.99
17,CCOc1ccc(N(CC(=O)NCc2ccc(OC)cc2)S(C)(=O)=O)cc1,2.61
18,CCOC(=O)CSc1nnc(Cn2c(=O)sc3ccccc32)n1C,-7.01
19,Nc1nc(Sc2ncccc2[N+](=O)[O-])n[nH]1,3.27
20,CC(=O)N1CCc2cc(S(=O)(=O)NC(Cc3ccccc3)C(=O)O)ccc21 (stereo not shown),11
21,CCOC(=O)c1sc2nccc(N(C)C)c2c1N=CNOCc1c(F)cccc1Cl,-9.04
22,Cc1ccccc1OCC(=O)N/N=C/c1ccc(N(C)C)cc1,-4.56

row,Compound,"hERG current change (%, negative = inhibition) at 10uM [%]"
1,O=S(=O)(Nc1ccc(S(=O)(=O)N2CCOCC2)cc1)c1ccccc1,1.13
2,CC(=O)c1ccc(N2CCN(c3ccc(S(=O)(=O)N4CCN(C)CC4)cn3)CC2)cc1,-24.4
3,CCc1nnc(NC(=O)OCc2ccccc2)s1,-3.89
4,c1cc(Nc2cccc3nccnc23)c2nccnc2c1,17.9
5,O=C(Nc1ccccc1N1CCN(C(=O)c2ccc(Cl)cc2)CC1)c1ccc2c(c1)OCO2,-46.8
6,COc1ccc(-n2nnnc2SCC(=O)NNC(=O)c2ccc([N+](=O)[O-])cc2)cc1,-18.6
7,CCCc1nc(SCC(=O)Nc2nc3c(s2)CCCC3)c2ccccc2n1,-2.46
8,CC(Oc1ccc(F)cc1)C(=O)Nc1cc(S(=O)(=O)N2CCOCC2)ccc1N1CCCCC1 (stereo not shown),6.32
9,CC(=O)c1c(C)oc2ccc(NS(=O)(=O)c3ccc(F)cc3C)cc12,-13.8
10,O=C(COC(=O)c1cccs1)Nc1ccccc1C(F)(F)F,15.8
11,Cc1cc(C)nc(SCc2ccc(C(=O)N/N=C/c3ccccn3)cc2)n1,-32.8
12,CCOc1ccc(Nc2nc(N)nc(CCl)n2)cc1,-8.2
13,Cc1noc(C)c1COc1ccc(C(=O)Nc2ccccc2)cc1,35.2
14,COc1ccc(NC(=O)CCCNC(=O)Cn2cnc3sc(C)c(C)c3c2=O)c(OC)c1,22.5
15,CC1(C)Cc2ccccc2-c2nnc(SCc3ccc(C#N)cc3)n21,-58.9
16,CC(C)C[C@@H]1NC(=O)[C@H](C(C)C)NC(=O)c2cc([N+](=O)[O-])cc(I)c2OCC[C@@H](C(N)=O)NC1=O,13.3
17,Cc1ccc(N2CC(C(=O)NC3CC3)CC2=O)cc1 (stereo not shown),12.8
18,S=C(NCCN1CCCCC1)Nc1ccccc1,0.941
19,CCOc1cc(C(=O)N[C@@H](C)C(=O)N2CCC3(CC2)NCCc2[nH]cnc23)cc(OCC)c1OCC,19.8
20,Cc1ccc(CNC(=O)c2ccc(Cn3nc(C)c(Cl)c3C)o2)cc1,-20.2
21,O=c1[nH]c(Sc2ccc([N+](=O)[O-])cc2[N+](=O)[O-])nc2ccccc12,9.99
22,CS(=O)(=O)Nc1ccccc1C(=O)O,-11.9

row,Compound,"hERG current change (%, negative = inhibition) at 10uM [%]"
1,O=C(Nc1nc2ccc(Cl)cc2s1)[C@@H]1CCCN1C(=O)c1cccs1,3.87
2,C/C(CCc1oc2ccc(Cl)cc2c1-c1ccc(C)o1)=N\O,22.9
3,CC1CN(C(=O)C2(C)CC2(Br)Br)CC(C)O1 (stereo not shown),-30.6
4,COC(=O)CCC(=O)Nc1ccc(S(=O)(=O)Nc2nc(C)cc(C)n2)cc1,12.9
5,O=C(CN1CCC(C(=O)c2ccc3c(c2)OCCO3)CC1)NCc1ccccc1,-8.17
6,CCOC(=O)C(=O)C1=C(N2CCOCC2)/C(=C\c2cccc([N+](=O)[O-])c2)CC1,-27.6
7,CNC(=S)N/N=C/c1c(C)c(C(=O)c2ccc(F)cc2)n2ccccc12,20.4
8,COCCn1c(SCC(=O)/C=C2\N(C)c3ccccc3C2(C)C)nnc1-c1ccncc1,-37.4
9,COc1ccc(CCNC(=O)C(=O)NCC2CCCN2S(=O)(=O)c2cccs2)cc1OC (stereo not shown),-21.1
10,O=C(CSc1nccc(=O)[nH]1)Nc1ccc(S(=O)(=O)N2CCOCC2)cc1,7.52
11,COc1ccc(-c2cc3nc(C)cc(N4CC(C)CC(C)C4)n3n2)cc1 (stereo not shown),8.41
12,COc1ccc(Br)cc1/C=N/NC(=O)CNC(=O)c1cccnc1,14.8
13,S=C1NC(c2ccccc2)=NCN1c1ccc(Cl)cc1,-3.17
14,O=C(CN1C(=O)C2CC=CCC2C1=O)NCc1ccc2c(c1)OCO2 (stereo not shown),11.2
15,COc1cccc(C(=O)c2c[nH]c(C(=O)NCc3ccco3)c2)c1,-8.61
16,S=c1[nH]nc(-c2cccc(Cl)c2)n1Cc1ccccc1,5.13
17,Cc1nn(-c2ccccc2)c(C)c1/C=N/n1c(-c2ccncc2)n[nH]c1=S,19.3
18,Clc1cccc(NCc2nnc3n2CCCCC3)c1,4.14
19,CCOC(=O)c1cc(NC(=O)CSCCO)ccc1Cl,-9
20,NNC(=O)c1ccccc1-n1cccc1,3.25
21,CC(=O)Nc1ccc(NC(=O)C(C)OC(=O)CN(C)S(=O)(=O)c2ccc(Cl)cc2)cc1 (stereo not shown),6.49
22,CCN(CC)C(=O)CSc1nc(OC)cc(=O)[nH]1,-19.5
